Screen size: about 48,000 compounds; about 120 (0.25%) were called active. About 4% were inconclusive and are not listed. Calls follow the shape of the dose curve; as a rule, active = well fitted activation curve with a large enough effect; inconclusive = small, poorly fitted or top-dose-only effect, or another doubt; inactive = no such curve, though single readings can be large or run the other way. The list shows a part of the results.
assay: Primary qHTS for Identification of Small Molecule Activators of Huntingtin-Antisense Promoter Activity; settings: HEK293 HTT-AS promoter firefly luciferase reporter, 24 h; series mostly up to 57.5 µM; activity change, positive = activation: at the top concentration; also: nearly all actives have a fitted effect of over 55% in size
In short: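 Firefly luciferase readout (Dual-Glo, 10 min RT) after 24 h, 37 °C compound exposure (final up to 57.5 uM) of HEK293 reporter cells cultured 24 h beforehand; PTC124 at 50 uM final as control inhibitor; activity scaled vehicle 0%, zero RLU -100%.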

Activity change, positive = activation, inactive:
COC(=O)c1ccc(NC(=O)CCc2c(C)nc3c(c(C)nn3-c3ccc(C)cc3)c2C)cc1 -13.8%
COc1ccc(CCNc2nc(-c3ccc(C)cc3)cc(C(F)F)n2)cc1OC -12.7%
Oc1c(C(c2ccccc2F)N2CCOCC2)sc2nc(-c3ccco3)nn12 (configuration not stated) -7.63%
CCOC(=O)C1CCN(c2c(C(=O)c3ccc(OCC)cc3)cnc3ccc(OC)cc23)CC1 -52.8%
Cc1nc2c(C(=O)NCc3ccccc3Cl)c[nH]n2c(=O)c1Cc1cccc(Cl)c1 -31.7%
CCN(c1ccccc1)S(=O)(=O)c1ccc2[nH]cc(C(=O)NC3CCCCC3)c(=O)c2c1 -39.5%
CC(NC(=O)CSc1n[nH]c(-c2ccccc2Cl)n1)c1nc2ccccc2n1C (configuration not stated) -18.3%
Cc1c(Cl)cccc1NC(=O)CC(c1cccs1)N1Cc2ccccc2C1=O (configuration not stated) -34.5%
CCOc1ccc(NC(=O)CN2CCN(Cc3ccccc3)S2(=O)=O)cc1 -10.1%
Cc1cc2[nH]c(=O)c(=O)[nH]c2cc1S(=O)(=O)Nc1ccc(OC(F)(F)F)cc1 -13.3%
Cc1cccc(OC(=O)c2cc(-c3ccc4c(c3)OCCO4)on2)c1C 22.4%
COc1cccc(CNC(=O)C(Cc2ccccc2)NS(=O)(=O)c2ccc3c(c2)oc(=O)n3C)c1 (configuration not stated) 5.95%
COc1ccc(-c2noc(CSc3nc(N)cc(=O)[nH]3)n2)cc1 -90.7%
Cc1cccc(NC(=O)c2ccc3nc(CCc4ccccc4)oc3c2)c1C 7.25%
CCOc1ccccc1C(=O)Nc1ccc2nc3c(c(Nc4ccc(OC)c(OC)c4)c2c1)CCCC3 -36.5%
Cc1ncc(CO)c2c1Oc1nc(-c3ccc(F)cc3)nc(SCc3ccc(F)cc3Cl)c1C2 -14.3%
Cc1cc(Nc2cccc(Cl)c2)nc2ccc(NC(=O)c3cccc(N(C)C)c3)cc12 -5.8%
CCCS(=O)(=O)N1CCC(N2CCN(Cc3ccc(F)cc3)C(=O)C2=O)CC1 -1.83%
COc1ccc(-c2noc(-c3nnn(-c4ccc(C(C)C)cc4)c3C)n2)cc1OC -6.71%
O=C(Nc1ccccc1)c1ccc2c(O)c(S(=O)(=O)c3ccc(Cl)cc3)c(=O)[nH]c2c1 -14.5%
COc1ccccc1C(=O)Nc1onc2c1CCCC2 0%
CCOC(=O)c1ccc(NC(=O)CN2Cc3ccccc3C2=O)cc1 1.1%
CCOc1ccc(C(=O)c2cn(CC(=O)Nc3ccc(F)c(F)c3)c3cc4c(cc3c2=O)OCCO4)cc1 -22.1%
CSc1ncc(Cl)c(C(=O)Nc2c(C(=O)c3ccc(C)c(F)c3)oc3ccccc23)n1 4.43%
COc1cccc(NC(=O)CCc2nc(-c3cccs3)no2)c1 -14.3%
CCOc1ccccc1NC(=O)CSC1=Nc2ccccc2C2=NC(CC(=O)NCc3ccc4c(c3)OCO4)C(=O)N12 (configuration not stated) -16.8%
Cc1nn(CC(=O)NCCc2ccccc2)c(=O)c2c1sc1ccccc12 15.9%
O=c1cc(-c2ccccc2)n2c(SCc3ccc(Br)cc3)nnc2[nH]1 3.44%
CCCCSCCCNC(=O)c1c[nH]c2ccc(S(=O)(=O)Nc3cccc(OC)c3)cc2c1=O -29.4%
Cc1cc2nc(N(Cc3cccnc3)C(=O)c3ccc(Cl)s3)sc2cc1C -13.4%
Cc1ccc(S(=O)(=O)NCC(c2ccc(N(C)C)cc2)N2CCc3ccccc32)cc1 (configuration not stated) -16.6%
COc1ccc(-n2ccnc(NCCc3ccc(Cl)cc3)c2=O)cc1OC -30.7%
CC(=O)N1c2ccc(S(=O)(=O)N(C)CC(=O)N(Cc3ccccc3)C(C)C)cc2CC1C (configuration not stated) -18.6%
CC(C)(C)c1ccc(C(=O)N2CCN(CCc3ccccn3)CC2)cc1 -9.67%
O=C(Cc1ccccc1)Nc1nnc2n1CCS2 2.02%
CCN(Cc1ccccc1)Cc1c(O)ccc2oc(C)c(C(=O)Nc3ccccc3C)c12 -40.7%
CCC(C)NC(=O)Cn1c(=O)n(-c2ccc(C)c(C)c2)c(=O)c2c(C)c(C(=O)N(CC)CC)sc21 (configuration not stated) -16.8%
CCOc1ccccc1C1C(C(=O)Nc2ccccc2)=C(C)Nc2c(C(=O)Nc3ccc(F)cc3)cnn21 (configuration not stated) -19.4%
CCn1cc(C(=O)N2CCN(c3ccc(OC)cc3)CC2)c2cc(OC)c(OC)cc2c1=O -4.77%
Cc1ccc(NC(=O)Cn2cc(C(=O)c3ccco3)c3ccccc32)cc1 -21.1%
CCOc1ccc(-c2cccc(NS(=O)(=O)c3ccccc3C(F)(F)F)c2)nn1 -15.7%
O=S(=O)(c1ccc2nc(Nc3cccc(F)c3)ccc2c1)N1CCCC1 -20.7%
Cc1ccccc1Cn1c2ccccc2c2cnn(CC(=O)N3CCC(C)CC3)c(=O)c21 -29.4%
Cc1ccc(S(=O)(=O)NCC(Nc2cccc(Cl)c2)c2ccccc2)cc1 (configuration not stated) -56.4%
CCc1ccc(NC(=O)N2CCC(N3CCN(Cc4ccc(C)cc4)C(=O)C3=O)CC2)cc1 -0.272%
CCn1c(C(=O)N2CCCC(C(=O)N3CCN(c4ccccc4)CC3)C2)cc2sccc21 (configuration not stated) -29.8%
COc1ccc(-c2cc3nccc(-c4cc(Cl)c(C)cc4O)n3n2)cc1 -32.6%
CCOc1cc(C(=O)NCc2nc(-c3cccc(C)c3)no2)cc(OCC)c1OCC -12.3%
COC(=O)c1ccccc1NC(=O)c1cc(CN2CCOCC2)on1 0.866%
CCc1cccc(C)c1Nc1c(-c2cccs2)nc2nc(C)cc(C)n12 -28.9%
O=C(CSc1nc2ccccc2nc1Cc1ccccc1F)Nc1cccc(C(F)(F)F)c1 -11%
COc1ccc(-c2onc(C)c2C)cc1S(=O)(=O)Nc1cc(Cl)ccc1C -35.1%
CCC(=O)Nc1ccc(CC)cc1-c1nc2ccccc2n(CC(=O)Nc2ccccc2C)c1=O -14%
Cc1ccc(NC(=O)Cn2c(=O)oc3cc(S(=O)(=O)N4CCCCC4)ccc32)c(C)c1 -45%
CCN(CC)c1ccc(NC(=O)CCS(=O)(=O)c2ccc3c(c2)oc(=O)n3C)c(C)c1 -12.7%
Cc1ccc(CNc2ncnc3onc(C)c23)cc1 -44.7%
CCCOc1ccc(C2c3c(-c4ccccc4O)n[nH]c3C(=O)N2Cc2cccnc2)cc1 (configuration not stated) -38.6%
CC(C)OCCCn1c(=O)c2ccccc2n2c(-c3cc(Cl)ccc3O)nnc12 9.17%
COc1cc(C(=O)Nc2ccc(-c3nc4ccccc4o3)c(O)c2)cc(OC)c1OC -15.4%
Cc1cn2c(=O)cc(COC(=O)c3ccc(NC(=O)COc4ccc(C)c(C)c4)cc3)nc2s1 -11.3%
CCc1ccccc1NC(=O)CSc1nnc(COc2ccccc2Cl)o1 -2.94%
CCOc1ccc(-c2cc(C(=O)NCCCOC)c3c(-c4ccc(CC)cc4)[nH]nc3n2)cc1 -8.38%
COc1cc2c(cc1OC)C(COc1ccc(F)cc1)N(C(=O)Cc1ccccc1)CC2 (configuration not stated) -19%
Cc1ccc(CN2c3ccccc3-c3nc(SCC(=O)Nc4c(C)cc(C)cc4C)ncc3S2(=O)=O)cc1 17.4%
C=CC(=O)Nc1cc2c(Nc3ccc(F)c(Cl)c3)ncnc2cc1C#CC(C)(C)N1CCN(C)CC1 -16.1%
CCOc1ccccc1C(=O)N1CC(=O)Nc2ccc(C)cc2C1c1ccccc1 (configuration not stated) -16.2%
COc1ccc(NC(=O)Nc2cc(-c3cn4cccnc4n3)ccc2OC)cc1 -33.3%
CCOc1ccccc1NC(=O)N1CCc2c(sc3c2CCCC3)C1c1ccccc1 (configuration not stated) 0%
CNC1CCC(N(Cc2cccc(-c3ccncc3)c2)C(=O)c2sc3c(F)ccc(F)c3c2Cl)CC1 (configuration not stated) -16%
Cc1nn2c(=O)cc(COc3ccc(/C=C(\C#N)C(=O)Nc4ccccc4)cc3Cl)nc2s1 -6.27%
O=C(OCc1ccccc1Cl)c1ccc(-c2nnn(Cc3ccc(F)cc3)n2)cc1 3.17%
COc1ccc(C(=O)NCCn2cc(SCC(=O)Nc3ccc(F)cc3)c3ccccc32)cc1 -46.3%
CNC(=O)c1cc(Oc2ccc(NC(=O)Nc3ccc(Cl)c(C(F)(F)F)c3)cc2)ccn1
CCN1CCN(C(=O)N[C@@H](C(=O)N[C@@H]2C(=O)N3[C@@H]2SC(C)(C)[C@H]3C(=O)O)c2ccccc2)C(=O)C1=O 0.686%
CCn1cc(C(=O)NCCc2ccc(Cl)cc2)c(=O)c2cc(S(=O)(=O)N3CCCCCC3)ccc21 -3.62%
Cc1nn(CCCC(=O)Nc2cccc(C(F)(F)F)c2)c(=O)c2nn(-c3ccccc3)c(C)c12 -4.63%
COc1cccc2c1C(=O)c1c(O)c3c(c(O)c1C2=O)C[C@@](O)(C(C)=O)C[C@@H]3O[C@H]1C[C@H](N)[C@H](O)[C@H](C)O1 -22.8%
COc1cc(NC(=O)Cn2cnc3sc(C)c(S(=O)(=O)N4CCC(C)CC4)c3c2=O)cc(OC)c1OC 10.6%
Cc1ccc2c(=O)c(C(=O)c3ccccc3)cn(CC(=O)Nc3ccccc3C)c2n1 -6.33%
Cc1nc(-c2ccc(S(=O)(=O)NCc3ccc(OC(C)C)cc3)cc2)co1 -28%
O=C(COc1ccccc1F)Nc1ccc2nc(SCC(=O)N3CCCC3)sc2c1 2.3%
CCc1ccccc1NC(=O)CN1C(=O)c2cccnc2Sc2ccccc21 1.34%
CCn1c(=O)c2sccc2n2c(CCC(=O)Nc3ccc(OC)cc3OC)nnc12 -8.68%
Cc1ccc(Cn2c(CNC(=O)Cc3cccc([N+](=O)[O-])c3)nc3cccnc32)cc1 -20%
O=c1c2ccccc2n(Cc2c(F)cccc2Cl)c(=O)n1Cc1ccccc1 -28.7%
O=S(=O)(NCC(c1ccccc1)N1CCc2ccccc21)c1ccccc1 (configuration not stated) -34%
CCn1c(=N)c(C(=O)NCC2CCCO2)cc2c(=O)n3cc(C)ccc3nc21 (configuration not stated) -6.35%
CCn1c(=O)cc(OCC(=O)N2CCN(c3cccc(Cl)c3)CC2)c2ccccc21 -51.9%
COc1cc(C(=O)N2CCC(c3nc4ccccc4s3)CC2)cc(OC)c1OC -17.5%
CCCCOc1ccc(CNC(=O)C2CCCN(c3nnc(-n4c(C)ccc4C)s3)C2)cc1 (configuration not stated) -22.4%
Cc1ccc(S(=O)(=O)N2CCN(Cc3ccc4c(c3)OCO4)CC2)cc1 17.9% [at 11.5 µM, percent change from vehicle, -100% = no light]
CCc1ccc(-c2cc(C)no2)cc1S(=O)(=O)Nc1cc(OC)c(OC)c(OC)c1 -26.5%

— PubChem BioAssay AID1508624 (National Center for Advancing Translational Sciences (NCATS), 2021)
